Data reported in the supplement of paper PMC8728848.
The other results are listed elsewhere or left out.

Assays:
Experiment in all cases: glycan array binding signal (z-score within array); higher = stronger binding
Conditions in all cases: glycan notation: IUPAC condensed, linker removed
[1] = biological target: Fuc(a1-2)Gal(b1-4)GlcNAc(b1-3)Gal(b1-4)GlcNAc(b1-2)Man(a1-3)[Fuc(a1-2)Gal(b1-4)GlcNAc(b1-3)Gal(b1-4)GlcNAc(b1-2)Man(a1-6)]Man(b1-4)GlcNAc(b1-4)GlcNAc
Outline: (§1)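 Arrays were curated from the Consortium for Functional Glycomics database, 3228 in total, and kept only where the protein sequence was available. Binding is expressed as a within-array Z-score. This score was averaged across arrays of the same protein sequence at different concentrations or buffers and across linkers, and negative values can be read as non-binding.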

[2] = biological target: Fuc(a1-2)Gal(b1-4)GlcNAc(b1-3)Gal(b1-4)GlcNAc(b1-3)Gal(b1-4)GlcNAc
Outline: as §1

[3] = biological target: Fuc(a1-2)Gal(b1-4)GlcNAc(b1-3)GalNAc
Outline: as §1

[4] = biological target: Fuc(a1-2)Gal(b1-4)GlcNAc(b1-3)[Fuc(a1-2)Gal(b1-4)GlcNAc(b1-6)]GalNAc
Outline: as §1

[5] = biological target: Fuc(a1-2)Gal(b1-4)GlcNAc(b1-3)[Fuc(a1-3)[Gal(b1-4)]GlcNAc(b1-6)]Gal(b1-4)Glc
Outline: as §1

[6] = biological target: Fuc(a1-2)Gal(b1-4)GlcNAc(b1-6)GalNAc
Outline: as §1

[7] = biological target: Fuc(a1-2)Gal(b1-4)GlcNAc6S
Outline: as §1

[8] = biological target: Fuc(a1-2)Gal(b1-4)[Fuc(a1-3)]GlcNAc
Outline: as §1

[9] = biological target: Fuc(a1-2)Gal(b1-4)[Fuc(a1-3)]GlcNAc(b1-2)Man(a1-3)[Fuc(a1-2)Gal(b1-4)[Fuc(a1-3)]GlcNAc(b1-2)Man(a1-6)]Man(b1-4)GlcNAc(b1-4)[Fuc(a1-6)]GlcNAc
Outline: as §1

[10] = biological target: Fuc(a1-2)Gal(b1-4)[Fuc(a1-3)]GlcNAc(b1-2)[Fuc(a1-2)Gal(b1-4)[Fuc(a1-3)]GlcNAc(b1-4)]Man(a1-3)[Fuc(a1-2)Gal(b1-4)[Fuc(a1-3)]GlcNAc(b1-2)Man(a1-6)]Man(b1-4)GlcNAc(b1-4)GlcNAc
Outline: as §1

[11] = biological target: Fuc(a1-2)Gal(b1-4)[Fuc(a1-3)]GlcNAc(b1-3)Gal(b1-4)[Fuc(a1-3)]GlcNAc
Outline: as §1

[12] = biological target: Fuc(a1-2)Gal(b1-4)[Fuc(a1-3)]GlcNAc(b1-3)Gal(b1-4)[Fuc(a1-3)]GlcNAc(b1-3)Gal(b1-4)[Fuc(a1-3)]GlcNAc
Outline: as §1

[13] = biological target: Fuc(a1-2)Gal(b1-4)[Fuc(a1-3)]GlcNAc(b1-3)GalNAc
Outline: as §1

[14] = biological target: Fuc(a1-2)Gal(b1-4)[Fuc(a1-3)]GlcNAc(b1-3)[Neu5Ac(a2-6)Gal(b1-4)GlcNAc(b1-6)]Gal(b1-4)Glc
Outline: as §1

[15] = biological target: Fuc(a1-2)Gal3S(b1-4)GlcNAc
Outline: as §1

[16] = biological target: Fuc(a1-2)Gal6S(b1-3)GlcNAc
Outline: as §1

[17] = biological target: Fuc(a1-2)Gal6S(b1-3)GlcNAc6S
Outline: as §1

Fuc(a1-2)Gal6S(b1-4)Glc = biological target: Fuc(a1-2)Gal6S(b1-4)Glc
Outline: as §1

[18] = biological target: Fuc(a1-2)Gal6S(b1-4)Glc6S
Outline: as §1

Fuc(a1-2)[Gal(a1-3)]Gal = biological target: Fuc(a1-2)[Gal(a1-3)]Gal
Outline: as §1

[19] = biological target: Fuc(a1-2)[Gal(a1-3)]Gal(b1-3)GalNAc
Outline: as §1

[20] = biological target: Fuc(a1-2)[Gal(a1-3)]Gal(b1-3)GalNAc(b1-3)Gal(a1-4)Gal(b1-4)Glc
Outline: as §1

[21] = biological target: Fuc(a1-2)[Gal(a1-3)]Gal(b1-3)GlcNAc
Outline: as §1

[22] = biological target: Fuc(a1-2)[Gal(a1-3)]Gal(b1-3)GlcNAc(b1-2)Man(a1-3)[Fuc(a1-2)[Gal(a1-3)]Gal(b1-3)GlcNAc(b1-2)Man(a1-6)]Man(b1-4)GlcNAc(b1-4)GlcNAc
Outline: as §1

[23] = biological target: Fuc(a1-2)[Gal(a1-3)]Gal(b1-3)GlcNAc(b1-2)Man(a1-3)[Fuc(a1-2)[Gal(a1-3)]Gal(b1-3)GlcNAc(b1-2)Man(a1-6)]Man(b1-4)GlcNAc(b1-4)[Fuc(a1-6)]GlcNAc
Outline: as §1

[24] = biological target: Fuc(a1-2)[Gal(a1-3)]Gal(b1-3)GlcNAc(b1-3)GalNAc
Outline: as §1

[25] = biological target: Fuc(a1-2)[Gal(a1-3)]Gal(b1-3)GlcNAc(b1-6)GalNAc
Outline: as §1

[26] = biological target: Fuc(a1-2)[Gal(a1-3)]Gal(b1-4)Glc
Outline: as §1

[27] = biological target: Fuc(a1-2)[Gal(a1-3)]Gal(b1-4)GlcNAc
Outline: as §1

[28] = biological target: Fuc(a1-2)[Gal(a1-3)]Gal(b1-4)GlcNAc(b1-2)Man
Outline: as §1

B1: MSMEG3662-2a (Mycobacterium smegmatis), A0QYH7_MYCS2 (protein)
chain: MGDTLTAGQKLERGGSLQSGNGAYTLTLQDDGNLVLYARDKAVWSTGTNGQDVVRAEVQTDGNFVLYTAEKPVWHTDTKGKKEVKLVLQDDRNLVLYAKDGPAWSSKTDTTEPPPPAPEPEKEAEVAPAAAEEAAPAPVAEPAPAEPAPAAPPPAPPAPRTYTVVSGDTLWAIAERFYGDGSKYQQIADASGIANPDLIHPGQVLTIP
glycan array binding signal (z-score) [1]: 0.094
glycan array binding signal (z-score) [2]: -0.144
glycan array binding signal (z-score) [3]: 0.35
glycan array binding signal (z-score) [4]: -0.023
glycan array binding signal (z-score) [5]: -0.103
glycan array binding signal (z-score) [6]: -0.084
glycan array binding signal (z-score) [7]: -0.148
glycan array binding signal (z-score) [8]: -0.153
glycan array binding signal (z-score) [9]: -0.031
glycan array binding signal (z-score) [10]: 0.078
glycan array binding signal (z-score) [11]: -0.021
glycan array binding signal (z-score) [12]: -0.111
glycan array binding signal (z-score) [13]: 0.189
glycan array binding signal (z-score) [14]: -0.168
glycan array binding signal (z-score) [15]: -0.16
glycan array binding signal (z-score) [16]: -0.102
glycan array binding signal (z-score) [17]: 0.062
glycan array binding signal (z-score) (Fuc(a1-2)Gal6S(b1-4)Glc): 0.027
glycan array binding signal (z-score) [18]: -0.091
glycan array binding signal (z-score) (Fuc(a1-2)[Gal(a1-3)]Gal): -0.014
glycan array binding signal (z-score) [19]: -0.084
glycan array binding signal (z-score) [20]: -0.103
glycan array binding signal (z-score) [21]: -0.105
glycan array binding signal (z-score) [22]: -0.102
glycan array binding signal (z-score) [23]: 0.063
glycan array binding signal (z-score) [24]: -0.076
glycan array binding signal (z-score) [25]: -0.005
glycan array binding signal (z-score) [26]: -0.24
glycan array binding signal (z-score) [27]: -0.021
glycan array binding signal (z-score) [28]: -0.162
